Experimental data taken from PubChem BioAssay AID1347044 (National Center for Advancing Translational Sciences (NCATS), 2019).
The other results are listed elsewhere or left out. The main result of the screen is listed elsewhere. These columns were measured beside it and carry no call. Compounds called inactive in the main read-out are mostly missing here. The note in brackets gives the kind of curve behind each potency; many fits are weak.

Assay: Natriuretic polypeptide receptor (hNpr1) antagonism - Confirmation; also: nearly all actives have a fitted effect of over 70% in size
Conditions: HEK293 hNpr1 cGMP GloSensor luminescence, ANP-stimulated; measured here: HEK-hNpr1 cytotoxicity, CellTiter-Glo
Protocol: In order to identify small molecular compounds that inhibit the hNpr1 receptor we developed a high-throughput assay to measure inhibition of the guanylate cyclase activity of the receptor. cGMP production was measured using a circular permutated Firefly luciferase (FLuc) enzyme functionally linked to the cGMP binding domain of human phosphodiesterase 5 (GloSensor technology pGS-40F, (Fan, F. et al. 2008). The cGMP-sensor was expressed in human embryonic kidney 293 (HEK-293) cells and FLuc activity was measured after stimulation with hNrp agonist peptide. hNrp agonists activates the receptor's associated guanylyl cyclase (GC) domain producing cGMP which then binds to the GloSensor resulting in FLuc activation, the enzymatic activity of which can be measured as bioluminescence with addition of luciferin substrate. A cytotoxicity counter-screen using the HEK-hNpr1-cGMP-sensor cells was also performed on the follow-up compounds. F. Fan, B. F. Binkowski, B. L. Butler, P. F. Stecha, M. K. Lewis, K. V. Wood, Novel genetically encoded biosensors using firefly luciferase. ACS Chem Biol 3, 346-351 (2008).
PROTOCOL TABLES (as described by Inglese J, Shamu CE and Guy RK. 2007) SEQUENCE No. (e.g., 1, 2, 3, etc.); PARAMETER (e.g., Cells, Incubation, Reagent, etc.); VALUE and DESCRIPTION. GLOSENSOR PROTOCOL 1. Cells. Seed 1500 HEK293 cGMP-sensor cells expressing hNpr1 per well in 4uL into Greiner 1536-well white/solid bottom high base, tissue culture-treated plates. 2. Incubation. Incubate plated cells at 37C in 5% CO2, 95% RH overnight. 3. Reagent. Add 1uL per well GloSensor reagent from Promega (2% final concentration) or CO2 independent media vehicle control to respective columns of Greiner 1536-well plates. 4. Incubation. Incubate plated cells at room temperature for 2 h, protect from light. 5. Compounds. Library compounds and A-71915 control added at 23 nL per well, transferred by Pin Tool. 6. Incubation. Incubate plated cells for 30 min. at room temperature, protect from light. 7. Detector. GloSensor baseline pre-read luminescence measured using CCD-based camera (Viewlux). 8. Compound. Add 1uL of hNppA peptide to 0.1 nM final concentration to stimulate hNpr1 or CO2 independent media as vehicle control. 9. Incubation. Incubate treated cells at room temperature for 20 min., protect from light. 10. Detector. GloSensor post-hNppA luminescence measured using CCD-based camera (Viewlux). NOTES (numbers refer to Sequence numbers above) 1. HEK293 cells expressing hNpr1 and GIP/pGS-40F grown to 85-95% confluence (48-72 h) in T175 culture flasks (CO2 independent media supplemented with 10% FBS, 1% Pen/Strep antibiotics and 1 ug/mL puromycin). Trypsinize and harvest cells from T175 culture flasks and filter through 40 um cell strainer. Cells counted with Invitrogen Countess (30,000,000 - 50,000,000 cells/flask). Cells diluted to a final concentration of 375 cells/uL in CO2 independent media and a Millipore multidrop used to dispense 1500 cells per well (4uL/well) into 13 1536-well Greiner White/Solid bottom, high base tissue-culture treated (TC) plates and one Aurora 1536-well Black/Clear bottom, low base, TC plate (for visual inspection of cell health throughout the duration of the assay). 2. Cells incubated overnight at ambient temperature, 24 h. at 37C in 95% RH incubator protected from light, covered with metal lid with gas-exchange holes. 3. Prepare GloSensor Reagent (Promega): Reconstitute GloSensor luciferase substrate by adding 8.2mL Hepes buffer to 250mg substrate, mix well, protect from light and stored at -80C. Prepare a fresh 12% GloSensor solution in CO2 independent supplemented plating media (see above). Mix well and store at ambient temperature, protected from light. 1uL 12% GloSensor Luciferase Reagent added (2% final concentration) to respective columns of 13 x 1536-well Greiner plate with BioRaptr, 1uL CO2 independent plating media added to respective columns as vehicle control with BioRaptr. 4. […]
Tags tell the direction and shape of the fitted curve.

Row | Structure (SMILES) | CC50
1 | Cc1nc(N2CCC(NC(=O)c3ccc4ccccc4n3)CC2)cc(C(F)(F)F)n1 | 19.3 µM [falling, partial curve]
2 | COc1ccc(OC)c(S(=O)(=O)N[C@H]2CO[C@H]3[C@@H]2OC[C@H]3OC(=O)Nc2cccc(C(F)(F)F)c2)c1 | 24.3 µM [falling, partial curve]
3 | CC1(c2noc(C3CCOCC3)n2)CCN(Cc2ccc(Cl)cc2F)CC1 | 21.7 µM [falling, partial curve]
4 | Cc1cccc(CN2CCCn3nc(C)c(-c4ccccc4-c4ccccc4)c32)n1 | 62.7 µM [falling, single point]
5 | O=C(c1cocn1)N1CCNc2cnc(Nc3cccc(C(F)(F)F)c3)nc2C1 | 31.4 µM [falling, partial curve]
6 | COc1cccc(CCC(=O)N2CCC(Cc3nc(-c4ccc(F)cc4)no3)CC2)c1 | 21.7 µM [falling, partial curve]
7 | CCNc1cc(N2CCC(CCC(=O)N3CCN(c4cccc(OC)c4)CC3)CC2)ncn1 | 17.2 µM [falling, partial curve]
8 | O=C(c1ccccc1F)N1CCN(C(=O)c2nnn3c2COC(c2ccc(Cl)cc2)C3)CC1 (stereo not drawn) | 21.7 µM [falling, partial curve]
9 | COc1cccc(NC(=O)Cc2c[nH]c3ncc(-c4cccnc4OC)cc23)c1 | 44.4 µM [falling, partial curve]
10 | CC(=O)Nc1ccc(S(=O)(=O)N[C@H]2CO[C@H]3[C@@H]2OC[C@@H]3Nc2nccc(-c3cccc(F)c3)n2)cc1 | 19.3 µM [falling, partial curve]
11 | COc1cc(Cl)ccc1C(=O)N1CCN(C(=O)c2nnn3c2COC(c2ccccc2)C3)CC1 (stereo not drawn) | 24.3 µM [falling, partial curve]
12 | COc1ccc2ccc(OCc3nc(C(=O)N4CCNC(=O)C4C)co3)cc2c1 (stereo not drawn) | 21.7 µM [falling, partial curve]
13 | CCOC(=O)C1(Cc2ccc(Cl)cc2)CCN(C(=O)c2cc(C)oc2C)CC1 | 24.3 µM [falling, single point]
14 | O=C(c1ccc2c(c1)OCO2)N1CCC(Cc2nc(-c3ccc(F)cc3)no2)CC1 | 3.85 µM [falling, full curve]
15 | COc1ccc(C(=O)Nc2ccc(-c3noc([C@@H]4CCCN4Cc4ccc(F)c(F)c4)n3)cn2)cc1 | 6.85 µM [falling, full curve]
16 | CC(C)N1C(=O)CO[C@H]2CCN(Cc3ccccc3Cl)CC[C@@H]21 | 11.1 µM [falling, partial curve]
17 | COc1ccc(NC(=O)c2cccc3c2CCN3C(=O)c2ccc(F)cc2)c(OC)c1 | 21.7 µM [falling, partial curve]
18 | Cc1nc(CN(C)C(=O)c2cc(Cn3c(C)nc4ccccc43)on2)cs1 | 17.2 µM [falling, partial curve]
19 | COc1cccc(CN2CCC(Oc3ccc(-c4noc(C5CC5)n4)cc3)C2)c1 (stereo not drawn) | 24.3 µM [falling, partial curve, poor fit]

Row | Structure (SMILES) | CC50
20 | CC1(C)[C@H](Cc2cc(CN3CCN(c4ccccc4)CC3)on2)C[C@@H]1NC(=O)Nc1ccc(F)cc1 | 19.3 µM [falling, partial curve]
21 | COC[C@@H]1CN(Cc2c(OC)cccc2OC)C[C@H]1c1ccncc1 | 21.7 µM [falling, partial curve]
22 | COc1cccc(-c2noc(CC3CCN(C(=O)c4cccc(Cl)c4)CC3)n2)c1 | 17.2 µM [falling, partial curve]
23 | Cc1noc(C)c1-c1cc2c(c(-c3ccccc3)c1)C(=O)N(C)C2 | 25 µM [falling, partial curve]
24 | O=C(Cc1cccc(F)c1)N1CCC2(CC1)N=C(c1ccc(Cl)cc1)NO2 | 21.7 µM [falling, partial curve]
25 | CS(=O)(=O)c1ccc(CN2CC[C@@H](c3ccc4ccccc4c3)[C@H](O)C2)cc1 | 24.3 µM [falling, partial curve]
26 | COc1ccc(S(=O)(=O)NC[C@H]2COCc3nc4c(C)cccc4n32)cc1 | 31.4 µM [falling, partial curve]
27 | N#Cc1ccc(C(=O)N2CCN(c3cc(-c4ccc(Cl)cc4)[nH]n3)CC2)cc1 | 17.2 µM [falling, partial curve]
28 | Cc1ccc(C(=O)N2CCC3(CC2)CC(N(Cc2ccccc2)C2CC2)CCO3)cc1F (stereo not drawn) | 21.7 µM [falling, partial curve]
29 | COc1ccc(OC)c(CN2CCCn3nc(C)c(-c4ccccc4C(C)C)c32)c1 | 39.6 µM [falling, partial curve]
30 | CC(C)(C)C(=O)N[C@H]1CO[C@H]2[C@@H]1OC[C@@H]2Nc1nccc(-c2ccc(-c3ccccc3)cc2)n1 | 21.7 µM [falling, partial curve]
31 | COc1ccc(-c2noc([C@@H]3C[C@H](NS(=O)(=O)c4ccc5ccccc5c4)CN3C)n2)cc1 | 19.3 µM [falling, partial curve]
32 | CCOc1ccc(C(=O)N2CCCN(c3cc(-c4ccc(Cl)cc4)[nH]n3)CC2)cc1OCC | 15.3 µM [falling, partial curve]
33 | CC(C)(C)CC(=O)N[C@H]1C[C@@H](Cc2cc(COc3ccccc3)on2)C1(C)C | 19.8 µM [falling, partial curve]
34 | O=S(=O)(N[C@H]1CO[C@H]2[C@@H]1OC[C@@H]2Nc1nccc(-c2cccs2)n1)c1cccs1 | 13.7 µM [falling, partial curve]
35 | O=C(NCc1ccc(Cl)cc1)C1CCN(c2cc(C(F)(F)F)ncn2)CC1 | 19.3 µM [falling, partial curve]
36 | COc1cc(CNC(=O)c2ccc3c(c2)N(C(=O)c2ccc(F)cc2)CC3)cc(OC)c1 | 21.7 µM [falling, partial curve]
37 | CC(C)c1nncn1C1CCN(S(=O)(=O)c2ccc(Br)s2)CC1 | 13.7 µM [falling, partial curve]
38 | CN(Cc1nc(Cc2ccccc2Cl)no1)Cc1cccc2cnccc12 | 10.9 µM [falling, partial curve]
